# Molecular target: T cell receptor Vδ2 (TRDV2) on T cells in PBMCs (human), A0JD36
# Assay: cell-based or functional assay
# Chain of T cell receptor Vδ2 (TRDV2) on T cells in PBMCs (human), A0JD36 (A0JD36 20-115, stated change not applied): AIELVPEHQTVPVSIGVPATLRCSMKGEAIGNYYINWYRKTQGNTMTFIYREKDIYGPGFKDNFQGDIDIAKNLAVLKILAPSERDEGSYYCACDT
"CD25+ (Vg9+ cells), flow staining [%]","CD71+ (Vg9+ cells), flow staining [%]","Granzyme B, Luninex (supernatant)","IFNγ, Luninex (supernatant)","IL6, Luninex (supernatant)","TNFα, Luninex (supernatant)","Vg9 T cell %, flow staining [%]",Binder
21.7,84.6,2380,1190,558,5870,2.6,"VG9B466 (antibody, human IgG1, lambda) heavy: QVQLVQSGPGLVKPSETLSLTCTVSGGSISNYYWSWIRQPAGKGLGWIGRIYSSGITNYNPSLKSRVTMSVDTSKNQLSLKLSSVTAADTAVYYCAGIVGVKGAFAIWGQGTMVTVSS[human IgG1 constant region omitted here] light: SYELTQPASVSGSPGQSITISCTGTSSDVGGYNYVSWYQQHPGKAPKLMIYEVSNRPSGVSNRFSGSKSGNTASLTISGLQAEDEADYYCSSYTSTSVVFGGGTKLTVLGQPKAAPSVTLFPPSSEELQANKATLVCLISDFYPGAVTVAWKADSSPVKAGVETTTPSKQSNNKYAASSYLSLTPEQWKSHRSYSCQVTHEGSTVEKTVAPTECS"
24,83.2,1840,778,1070,1200,3.4,"VG9B457 (antibody, human IgG1, lambda) heavy: EVQLVESGPGLVKPSETLSLTCTVSGGSISNYYWSWIRQPAGKGLGWIGRIYSSGITNYNPSLKSRVTMSVDTSKNQLSLKLSSVTAADTAVYYCAGIVGVKGAFAIWGQGTMVTVSS[human IgG1 constant region omitted here] light: QAVLTQPASVSGSPGQSITISCTGTSSDVGGYNYVSWYQQHPGKAPKLMIYEVSNRPSGVSNRFSGSKSGNTASLTISGLQAEDEADYYCSSYTSTSVVFGGGTKLTVLGQPKAAPSVTLFPPSSEELQANKATLVCLISDFYPGAVTVAWKADSSPVKAGVETTTPSKQSNNKYAASSYLSLTPEQWKSHRSYSCQVTHEGSTVEKTVAPTECS"
26.6,86.2,2490,1580,392,5480,3.3,"VG9B464 (antibody, human IgG1, lambda) heavy: EVQLVQSGPGLVKPSETLSLTCTVSGGSISNYYWSWIRQPAGKGLGWIGRIYSSGITNYNPSLKSRVTMSVDTSKNQLSLKLSSVTAADTAVYYCAGIVGVKGAFAIWGQGTTVTVSS[human IgG1 constant region omitted here] light: QSALTQPASVSGSPGQSITISCTGTSSDVGGYNYVSWYQQHPGKAPKLMIYEVSNRPSGVSNRFSGSKSGNTASLTISGLQAEDEADYYCSSYTSTSVVFGGGTKLTVLGQPKAAPSVTLFPPSSEELQANKATLVCLISDFYPGAVTVAWKADSSPVKAGVETTTPSKQSNNKYAASSYLSLTPEQWKSHRSYSCQVTHEGSTVEKTVAPTECS"
18.4,82,1310,322,542,617,3.9,"VG9B442 (antibody, human IgG1, lambda) heavy: QVQLVESGPGLVKPSETLSLTCTVSGGSISNYYWSWIRQPAGKGLGWIGRIYSSGITNYNPSLKSRVTMSVDTSKNQLSLKLSSVTAADTAVYYCAGIVGVKGAFAIWGQGTMVTVSS[human IgG1 constant region omitted here] light: QSALTQPASVSGSPGQSITISCTGTSSDVGGYNYVSWYQQHPGKAPKLMIYEVSNRPSGVSNRFSGSKSGNTASLTISGLQAEDEADYYCSSYTSTSVVFGGGTKVTVLGQPKAAPSVTLFPPSSEELQANKATLVCLISDFYPGAVTVAWKADSSPVKAGVETTTPSKQSNNKYAASSYLSLTPEQWKSHRSYSCQVTHEGSTVEKTVAPTECS"
28.2,86.4,2360,653,387,1420,4.2,"VG9B438 (antibody, human IgG1, lambda) heavy: EVQLVESGPGLVKPSETLSLTCTVSGGSISNYYWSWIRQPAGKGLGWIGRIYSSGITNYNPSLKSRVTMSVDTSKNQLSLKLSSVTAADTAVYYCAGIVGVKGAFAIWGQGTMVTVSS[human IgG1 constant region omitted here] light: SYELTQPASVSGSPGQSITISCTGTSSDVGGYNYVSWYQQHPGKAPKLMIYEVSNRPSGVSNRFSGSKSGNTASLTISGLQAEDEADYYCSSYTSTSVVFGGGTKLTVLGQPKAAPSVTLFPPSSEELQANKATLVCLISDFYPGAVTVAWKADSSPVKAGVETTTPSKQSNNKYAASSYLSLTPEQWKSHRSYSCQVTHEGSTVEKTVAPTECS"
20.4,85.4,1490,666,899,311,3.7,"VG9B437 (antibody, human IgG1, lambda) heavy: EVQLQESGPGLVKPSETLSLTCTVSGGSISNYYWSWIRQPAGKGLGWIGRIYSSGITNYNPSLKSRVTMSVDTSKNQLSLKLSSVTAADTAVYYCAGIVGVKGAFAIWGQGTMVTVSS[human IgG1 constant region omitted here] light: QSALTQPASVSGSPGQSITISCTGTSSDVGGYNYVSWYQQHPGKAPKLMIYEVSNRPSGVSNRFSGSKSGNTASLTISGLQAEDEADYYCSSYTSTSVVFGGGTKLTVLGQPKAAPSVTLFPPSSEELQANKATLVCLISDFYPGAVTVAWKADSSPVKAGVETTTPSKQSNNKYAASSYLSLTPEQWKSHRSYSCQVTHEGSTVEKTVAPTECS"
20.5,85.3,4800,900,985,478,4.2,"VG9B434 (antibody, human IgG1, lambda) heavy: QVQLQESGPGLVKPSETLSLTCTVSGGSISNYYWSWIRQPAGKGLGWIGRIYSSGITNYNPSLKSRVTMSVDTSKNQLSLKLSSVTAADTAVYYCAGIVGVKGAFAIWGQGTMVTVSS[human IgG1 constant region omitted here] light: QSVLTQPASVSGSPGQSITISCTGTSSDVGGYNYVSWYQQHPGKAPKLMIYEVSNRPSGVSNRFSGSKSGNTASLTISGLQAEDEADYYCSSYTSTSVVFGGGTKLTVLGQPKAAPSVTLFPPSSEELQANKATLVCLISDFYPGAVTVAWKADSSPVKAGVETTTPSKQSNNKYAASSYLSLTPEQWKSHRSYSCQVTHEGSTVEKTVAPTECS"
26.1,83.9,1380,560,293,1510,3.5,"VG9B450 (antibody, human IgG1, lambda) heavy: EVQLQESGPGLVKPSETLSLTCTVSGGSISNYYWSWIRQPAGKGLGWIGRIYSSGITNYNPSLKSRVTMSVDTSKNQLSLKLSSVTAADTAVYYCAGIVGVKGAFAIWGQGTMVTVSS[human IgG1 constant region omitted here] light: QSVLTQPASVSGSPGQSITISCTGTSSDVGGYNYVSWYQQHPGKAPKLMIYEVSNRPSGVSNRFSGSKSGNTASLTISGLQAEDEADYYCSSYTSTSVVFGGGTKLTVLGQPKAAPSVTLFPPSSEELQANKATLVCLISDFYPGAVTVAWKADSSPVKAGVETTTPSKQSNNKYAASSYLSLTPEQWKSHRSYSCQVTHEGSTVEKTVAPTECS"
21.5,87,1080,230,149,271,3.9,"VG9B436 (antibody, human IgG1, lambda) heavy: EVQLVESGPGLVKPSETLSLTCTVSGGSISNYYWSWIRQPAGKGLGWIGRIYSSGITNYNPSLKSRVTMSVDTSKNQLSLKLSSVTAADTAVYYCAGIVGVKGAFAIWGQGTMVTVSS[human IgG1 constant region omitted here] light: QSVLTQPASVSGSPGQSITISCTGTSSDVGGYNYVSWYQQHPGKAPKLMIYEVSNRPSGVSNRFSGSKSGNTASLTISGLQAEDEADYYCSSYTSTSVVFGGGTKLTVLGQPKAAPSVTLFPPSSEELQANKATLVCLISDFYPGAVTVAWKADSSPVKAGVETTTPSKQSNNKYAASSYLSLTPEQWKSHRSYSCQVTHEGSTVEKTVAPTECS"

# Molecular target: TCR Vδ2 (TRDV2) (human), A0JD36
# Sequence (A0JD36 20-115, stated change not applied): as the sequence (A0JD36 20-115, stated change not applied) above
# Assay: cell-based or functional assay
"CD25+ (Vg9+ cells), flow staining [%]","CD71+ (Vg9+ cells), flow staining [%]","Granzyme B, Luninex (supernatant)","IFNγ, Luninex (supernatant)","IL6, Luninex (supernatant)","TNFα, Luninex (supernatant)","Vg9 T cell %, flow staining [%]",Binder
16.9,79.5,274,29,95,213,4.8,"VG9B41 (antibody, human IgG1, kappa) heavy: QVQLQESGPQLVRPGASVKISCKASGYSFTTYWMHWVKQRPGQGLEWIGLIDPSDSETRLNQKFKDKATLTVDKSSSTAYMRLSSPTSEDSAVYYCASNRWLLGWGQGTMVTVSS[human IgG1 constant region omitted here] light: EIVLTQTPLSSPVTLGQPASISCRSSQSLVHSDGNTYLSWLHQRPGQPPRLLIYKISNRFSGVPDRFSGSGAGTDFTLKISRVETEDVGVYYCVQTREFPLTFGGGTKVEIKRTVAAPSVFIFPPSDEQLKSGTASVVCLLNNFYPREAKVQWKVDNALQSGNSQESVTEQDSKDSTYSLSSTLTLSKADYEKHKVYACEVTHQGLSSPVTKSFNRGEC"
10.8,81.4,125,44,17,9,3.7,"VG9B53 (antibody, human IgG1, kappa) heavy: QVQLQESGPGLVKPSETLSLTCTVSGGSISSYYWSWIRQPAGKGLEWIGRIHTIGSINYNPSLKSRVTMSVDTSKNQFSLKLSSVTAADTAVYYCAMEGVGATNYYYGMAVWGRGTMVTVSS[human IgG1 constant region omitted here] light: [about 120 residues omitted here][about 100 residues omitted here]"

# Reference: US20220125947A1
